This is one part of the list. At the low end of the ranking the order means little.
The sequences below were run against T1, GST-Rok (full length) (UniProt O34857) (assay: protein binding microarray). Conditions: Rok is a gene silencer of Bacillus subtilis; high values mean tight binding; most listed sequences are background and not binding sites; double strand, one strand shown.
T1 sequence: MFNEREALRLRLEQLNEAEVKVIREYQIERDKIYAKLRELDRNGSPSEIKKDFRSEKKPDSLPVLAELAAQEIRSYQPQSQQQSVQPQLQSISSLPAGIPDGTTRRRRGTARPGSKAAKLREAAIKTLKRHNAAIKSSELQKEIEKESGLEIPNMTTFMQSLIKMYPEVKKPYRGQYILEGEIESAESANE
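Also: rank score from −0.5 (least bound) to 0.5 (best bound).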

Row | Sequence | binding signal
1 | GCAACAGC | -0.182 E-score
2 | AACATGTG | 0.0924 E-score
3 | ACTCGCAA | 0.0596 E-score
4 | CGGCCCGA | -0.264 E-score
5 | AGCTCGCA | -0.182 E-score
6 | ACCATACT | 0.229 E-score
7 | GTTAGAAA | 0.227 E-score
8 | TAATCTCA | 0.191 E-score
9 | CGTGTTTA | 0.0967 E-score
10 | CATGGGTC | -0.0833 E-score
11 | CTCCCCTA | -0.284 E-score
12 | GCCCGGAC | -0.33 E-score
13 | TCCCTACA | -0.00586 E-score
14 | AGGTATAG | 0.233 E-score
15 | AACGAAGC | -0.108 E-score
16 | ACGACTCC | -0.217 E-score
17 | GATTGCAC | -0.0936 E-score
18 | AGCCGGGA | -0.232 E-score
19 | ACCATGGC | -0.102 E-score
20 | CAAACACG | 0.0393 E-score
21 | CCCAGTTC | -0.23 E-score
22 | CTCGGTGC | -0.103 E-score
23 | AGATGTTG | 0.0239 E-score
24 | CGAAGAAC | -0.0769 E-score
25 | GTCACGAC | -0.159 E-score

Row | Sequence | binding signal
26 | CGAATCTC | -0.0708 E-score
27 | GTAACGAA | 0.17 E-score
28 | GGTGTTTA | 0.045 E-score
29 | AAATAAGT | 0.131 E-score
30 | ACAAATCG | 0.0545 E-score
31 | ATGCTGAC | -0.12 E-score
32 | ATGTCGCG | -0.0435 E-score
33 | CGGGAATA | 0.0227 E-score
34 | ACGTATCT | 0.213 E-score
35 | CTGGTTGA | -0.108 E-score
36 | AAGATGTC | -0.237 E-score
37 | CAACAAGG | -0.0722 E-score
38 | TGCATTAA | 0.25 E-score
39 | CGGGACCG | -0.309 E-score
40 | AACTCGAT | -0.0422 E-score
41 | ACCCTGCC | -0.199 E-score
42 | AAAAATTT | -0.0258 E-score
43 | ATCCAAGC | -0.0616 E-score
44 | TATCTCAA | 0.171 E-score
45 | AATAATAC | 0.332 E-score
46 | AGGTAAAG | -0.046 E-score
47 | TAGTCGGA | 0.0437 E-score
48 | GATATTCA | 0.209 E-score
49 | ACTCGAAC | 0.0593 E-score
50 | TAGAGCTA | 0.109 E-score

Row | Sequence | binding signal
51 | AACCTTTA | 0.114 E-score
52 | AGCCGTGC | -0.157 E-score
53 | AGTCGCTC | -0.207 E-score
54 | CCCTTCCC | -0.388 E-score
55 | ATTTACAG | 0.24 E-score
56 | ACTGGCTG | -0.15 E-score
57 | CCAGCGGG | -0.322 E-score
58 | GAGCACTA | -0.168 E-score
59 | ACGCCATC | -0.182 E-score
60 | CGTACCAG | -0.248 E-score
61 | CAACACGC | -0.0842 E-score
62 | ACATCGCA | -0.0466 E-score
63 | ACACACCA | 0.0867 E-score
64 | ACTGCGAT | -0.0287 E-score
65 | AATTCCTC | -0.183 E-score
66 | CCGTAGGA | -0.205 E-score
67 | ACCGTCAG | -0.081 E-score
68 | TTCCTAAA | 0.0568 E-score
69 | CCAATCGG | -0.292 E-score
70 | AGGTCTGG | -0.0443 E-score
71 | AGTTCTAG | 0.335 E-score
72 | AGGGGCGA | -0.271 E-score
73 | TTCATCAA | 0.0554 E-score
74 | ACTCCCAG | -0.218 E-score
75 | GTATCAAC | 0.151 E-score

Row | Sequence | binding signal
76 | AGTGGGAT | -0.132 E-score
77 | GGAAAATA | 0.37 E-score
78 | CCAATCAC | -0.0893 E-score
79 | GAATACTC | 0.0435 E-score
80 | AGAGAGAC | -0.305 E-score
81 | GACACCCC | -0.309 E-score
82 | AAAGGCTA | 0.0162 E-score
83 | GACCGTGC | -0.0607 E-score
84 | GTACTGAC | 0.124 E-score
85 | CCAATGAC | -0.159 E-score
86 | AAGACACC | -0.165 E-score
87 | AGGCTGAT | -0.0271 E-score
88 | ACTTGGAC | -0.0575 E-score
89 | ACAATCCT | 0.2 E-score
90 | ACCTTTGA | -0.0903 E-score
91 | AGCACAAA | 0.154 E-score
92 | AGCAGGTG | -0.239 E-score
93 | AGATTTTC | 0.0566 E-score
94 | GCGGTGGA | -0.143 E-score
95 | GAGAACTC | -0.267 E-score
96 | TCCTCACA | 0.0323 E-score
97 | CGCGTGTC | -0.135 E-score
98 | AATCATAC | 0.211 E-score
99 | ACGCTGCG | -0.196 E-score
100 | CCCTACCC | -0.215 E-score

Row | Sequence | binding signal
101 | AATCAATA | 0.296 E-score
102 | AGTTACTA | 0.345 E-score
103 | ACCCACAG | -0.0284 E-score
104 | AAATACAC | 0.216 E-score
105 | CGATGAAG | -0.0041 E-score
106 | CATGAGAC | 0.0242 E-score
107 | CCAACCCC | -0.41 E-score
108 | GAGCGCAC | -0.22 E-score
109 | AACCCGAT | -0.0269 E-score
110 | GCAGAGGC | -0.347 E-score
111 | CCAAGGGG | -0.397 E-score
112 | GCGAGAGC | -0.342 E-score
113 | CCAGTTAA | -0.0326 E-score
114 | AGTTGTGG | 0.0448 E-score
115 | AACCCCAA | -0.227 E-score
116 | AATCCTGC | -0.0557 E-score
117 | GTCAATTA | 0.194 E-score
118 | GACAGCGC | -0.0411 E-score
119 | ACTCCTTC | -0.163 E-score
120 | GAACCTGA | 0.0684 E-score
121 | ATAAGTCC | 0.051 E-score
122 | CCCGTCCG | -0.279 E-score
123 | CGGCCCCG | -0.307 E-score
124 | CTTGCTTA | -0.138 E-score
125 | CGAGAGCA | -0.154 E-score

Row | Sequence | binding signal
126 | GGGCGTGA | -0.34 E-score
127 | AACAGTAC | 0.286 E-score
128 | ATCGCACC | -0.0112 E-score
129 | CCCATTGA | -0.11 E-score
130 | ATGCCGTG | -0.134 E-score
131 | AGAATCCC | -0.079 E-score
132 | AGGACCTG | -0.179 E-score
133 | AGTATCGA | 0.237 E-score
134 | GGCTTCGA | -0.207 E-score
135 | AGCTCTGC | -0.204 E-score
136 | AGACTTCA | -0.0895 E-score
137 | CCTTGAAA | -0.174 E-score
138 | ACGTGTCA | -0.0965 E-score
139 | CGGAGACC | -0.17 E-score
140 | ATCCTTGG | 0.0291 E-score
141 | ATGTAGCC | 0.0892 E-score
142 | ACCACGCC | -0.0985 E-score
143 | CGGGGGGC | -0.45 E-score
144 | CTTCAAGA | -0.197 E-score
145 | CATGCATG | -0.0782 E-score
146 | GACTACCC | -0.0308 E-score
147 | GAGGTGCC | -0.0909 E-score
148 | CCCATGCG | -0.324 E-score
149 | AAACTATT | 0.458 E-score
150 | CGAATAAA | 0.062 E-score

Row | Sequence | binding signal
151 | ACACTTTA | 0.0953 E-score
152 | AGAATTCA | 0.0872 E-score
153 | CTCGCCAA | -0.281 E-score
154 | AATATCGT | 0.23 E-score
155 | ATCTAAGA | 0.146 E-score
156 | CGGGTTCC | -0.165 E-score
157 | GGAGATTA | 0.0692 E-score
158 | CATGTCGG | -0.134 E-score
159 | ATGGTGCC | -0.179 E-score
160 | TATCCAGA | -0.0542 E-score
161 | GGACCCAC | -0.274 E-score
162 | CGAGATGC | -0.104 E-score
163 | CGTAGCAG | -0.0243 E-score
164 | CCTACCAA | -0.17 E-score
165 | AGTGCCTG | -0.284 E-score
166 | AGATTTCG | 0.175 E-score
167 | GGTGTGGA | -0.0962 E-score
168 | CGGTCATC | 0.0156 E-score
169 | ATTCAGGA | -0.0702 E-score
170 | CTTGCGGC | -0.19 E-score
171 | ATACCGCA | 0.17 E-score
172 | GCCTCTCA | -0.227 E-score

— publication PMC6212790
